# Laboratory results reported in PubChem BioAssay AID485281 (National Center for Advancing Translational Sciences (NCATS), 2010).
# Values joined by “and” are separate entries in the source; they are usually repeats but may differ in a detail not shown here. Equal values may be shown once. In all, about 350,000 compounds went through this assay and about 260 (0.074%) were called active. The shares of active, inactive and inconclusive entries below differ from those in the screen. Calls follow the shape of the dose curve; as a rule, active = well fitted inhibition curve with a large enough effect; inconclusive = small, poorly fitted or top-dose-only effect; inactive = no such curve, though single readings can be large or run the other way. Potencies beside an inconclusive call are fits to weak or partial responses and may not hold up.
# Target: Ferritin light chain (Equus caballus) (UniProt P02791)
# Assay: qHTS Assay for Identification of Novel General Anesthetics; also: nearly all actives have a fitted effect of over 20% in size
# Conditions: apoferritin/1-aminoanthracene competitive binding, fluorescence; activity change, negative = displacement: at 77.5 µM (top of the series)
# In short: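 Steps: apoferritin (10 uM) was premixed with half-saturated 1-AMA in PBS, compounds were pin-transferred, plates stood 10 min at room temperature, fluorescence was read at 380/535 nm, and curves were fitted with a Hill equation.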
# % is scaled to controls: 0 for no effect and ±100 for the full control effect; potency is read from the fitted curve at half-maximal effect; tags tell the direction and shape of the fitted curve.
# Sequence of UniProt P02791 (P02791 whole entry, looked up): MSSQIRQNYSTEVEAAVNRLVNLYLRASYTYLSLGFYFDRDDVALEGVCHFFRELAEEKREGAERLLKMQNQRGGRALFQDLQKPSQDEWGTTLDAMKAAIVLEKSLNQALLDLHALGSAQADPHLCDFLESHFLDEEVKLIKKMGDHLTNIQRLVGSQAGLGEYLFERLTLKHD
Compound,Potency,"activity change, negative = displacement"
O=C(CSc1nc2ccsc2c(=O)n1CC1CCC(C(=O)O)CC1)c1ccc(Cl)cc1 (centres undefined),"inconclusive: 25.1 µM [inhibitor, single point]",
Nc1ccc2nc(SCc3ccc([N+](=O)[O-])cc3)sc2c1,"inconclusive: 20 µM [inhibitor, partial curve]",
Cc1ccc(-n2ncc3c(=O)n(CC(=O)N4CCCCCC4)cnc32)cc1,"inconclusive: 12.6 µM [inhibitor, partial curve]",
COc1cc(C(=S)N2CCCCC2)ccc1OCC(=O)Nc1ccc(F)cc1,"inconclusive: 12.6 µM [inhibitor, partial curve]",
CN(C(=O)COc1ccc(Br)cc1Cl)C1CCCCC1,"inconclusive: 28.2 µM [inhibitor, partial curve]",
CCCC(=O)N1CCN(c2ccc(NC(=O)c3ccccc3)cc2)CC1,"inconclusive: 56.2 µM [inhibitor, single point]",
CC(C)(C)c1ccc(C(=O)N/C(=C\c2cccc([N+](=O)[O-])c2)C(=O)Nc2cccc(C(=O)O)c2)cc1,"inconclusive: 39.8 µM [inhibitor, single point]",
COc1ccc(-c2cc3ccc(O)c(CN4CCC(C)CC4)c3oc2=O)cc1,,inactive: 16.3%
O=C(c1ccco1)N1N=C(c2ccc3nccnc3c2)CC1c1ccccc1 (centres undefined),"inconclusive: 31.6 µM [inhibitor, partial curve]",
CC1CCCC(C)N1C(=C(Cl)Cl)C(=C1SCCS1)[N+](=O)[O-] (centres undefined),"inconclusive: 14.1 µM [inhibitor, partial curve]",
O=C(CSc1nccn1-c1cccc(Cl)c1)Nc1ccc2c(c1)OCCO2,"inconclusive: 50.1 µM [inhibitor, single point]",
CC(=O)c1ccc(NC(=O)C2Cc3ccccc3N2C(=O)c2ccccc2)cc1 (centres undefined),"inconclusive: 1.78 µM [inhibitor, full curve]",
CC(C)=CCc1c2c(c3occ(-c4ccc(O)cc4)c(=O)c3c1O)C=CC(C)(C)O2,"inconclusive: 10 µM [inhibitor, partial curve] and inconclusive: 12.6 µM [inhibitor, partial curve]",
COc1ccc(C)cc1NC(=O)Cn1c(=O)c(C(F)(F)F)nc2ccccc21,"inconclusive: 25.1 µM [inhibitor, single point]",
COc1ccccc1N1CCN(c2ccc(=O)n(CC(=O)NCc3ccc(OC(C)C)cc3)n2)CC1,"inconclusive: 28.2 µM [inhibitor, single point]",
Cc1ccc(-c2cc(C(=O)N3CCCCC3)c3ccccc3n2)cc1C,"inconclusive: 25.1 µM [inhibitor, partial curve]",
Nc1c(C(=O)N/N=C/c2ccc([N+](=O)[O-])cc2)sc2nnc(-c3ccccc3)c(-c3ccccc3)c12,,inactive: -3.35%
CC(=O)Oc1ccc(-c2ccc(C(=O)Nc3cccc(S(=O)(=O)N4CCOCC4)c3)cc2)cc1,"inconclusive: 12.6 µM [inhibitor, partial curve]",
CC1CCCC(NC(=O)COC(=O)COc2ccc(Cl)cc2)C1C (centres undefined),"inconclusive: 15.8 µM [inhibitor, partial curve]",
O=Cc1ccc(Oc2cccc(C(F)(F)F)c2)nc1,"inconclusive: 39.8 µM [inhibitor, single point]",
COc1cccc(-c2nc(CS(=O)(=O)CC(=O)NCCC(C)C)c(C)o2)c1,"inconclusive: 28.2 µM [inhibitor, single point]",
O=c1cc2c(nn1Cc1ccc(Cl)cc1)-c1ccccc1CC2,"inconclusive: 14.1 µM [inhibitor, partial curve]",

Compound,Potency,"activity change, negative = displacement"
c1ccc(-c2nc(N3CCCCCC3)nc(-n3ccnc3)n2)cc1,,inactive: -9.22%
COc1ccc2[nH]c(C)c(C(=O)CN3CCN(C/C=C/c4ccccc4)CC3)c2c1,"inconclusive: 28.2 µM [inhibitor, partial curve]",
Cc1ccc(N2C(=O)CSC2c2cccs2)cc1 (centres undefined),"inconclusive: 28.2 µM [inhibitor, partial curve]",
CCC1CC2(C)NC(=O)c3c(sc4c3CC(C)(C)OC4)N2C1=O (centres undefined),"inconclusive: 25.1 µM [inhibitor, partial curve]",
COc1ccc(/C=C\C(=O)CC(O)(c2ccccc2)C(F)(F)F)cc1 (centres undefined),"inconclusive: 5.62 µM [inhibitor, partial curve]",
CS(=O)(=O)N1CCN(c2ccc([N+](=O)[O-])c(NCc3cccnc3)c2)CC1,"inconclusive: 25.1 µM [inhibitor, partial curve]",
COc1cc(/C=N/NC(=O)c2ccncc2)ccc1OC(=O)c1ccccc1Cl,"inconclusive: 35.5 µM [inhibitor, partial curve]",
CC(C)(C)c1ccc(Cn2c(=O)cnc3ccccc32)cc1,"inconclusive: 25.1 µM [inhibitor, partial curve]",
O=C1C2C3C=CC(C3)C2C(=O)N1/N=C/c1cn(Cc2ccccc2)c2ccccc12 (centres undefined),"inconclusive: 5.62 µM [inhibitor, partial curve]",
Cc1nc2cc(C(=O)OCC(=O)Nc3ccc(C#N)cc3)ccc2n1-c1ccccc1,"inconclusive: 5.01 µM [inhibitor, full curve]",
Fc1ccc(NCc2ccccc2F)cc1Cl,"inconclusive: 7.08 µM [inhibitor, full curve]",
O=C(NCCNc1ccc([N+](=O)[O-])cc1Cl)c1ccccc1F,"inconclusive: 22.4 µM [inhibitor, partial curve]",
O=C(c1ccc(CSc2ccc(Cl)cc2)cc1)N1CCOCC1,"inconclusive: 25.1 µM [inhibitor, partial curve]",
Cc1ccccc1CC1(CO)CCCN(C(=O)Cc2c(F)ccc(F)c2F)C1 (centres undefined),"inconclusive: 22.4 µM [inhibitor, partial curve]",
COc1cc(CN2CCN(Cc3ccc(C)cc3)C(CCO)C2)cc(OC)c1O (centres undefined),,inactive: -8.84%
O=C(NCCc1csc(-c2ccccc2)n1)c1cccs1,,inactive: -3%
CC(C)OCCCNS(=O)(=O)c1ccc2ccccc2c1,"inconclusive: 35.5 µM [inhibitor, partial curve]",
Cc1ccc(C2=NOC(=O)/C2=C\c2ccc(C)o2)cc1,,inactive: -1.9%
COC(=O)c1sccc1NC(=S)N1CCCCC1,active: 39.8 µM,
CCOc1ccc(NC(=O)NNC(=O)c2cccnc2)cc1,"inconclusive: 31.6 µM [inhibitor, partial curve]",
COCCOC(=O)C1=C(C)N=C2SCCC(=O)N2C1c1ccc(C(=O)OC)cc1 (centres undefined),"inconclusive: 31.6 µM [inhibitor, single point]",
COc1cccc2cc(C(=O)C3=C(O)C(=O)N(c4cc(C)on4)C3c3cccs3)oc12 (centres undefined),"inconclusive: 12.6 µM [inhibitor, partial curve]",

Compound,Potency,"activity change, negative = displacement"
CCCCCOC(=O)c1ccc(NC(=O)c2ccco2)cc1,"inconclusive: 28.2 µM [inhibitor, single point]",
Cc1ccc(C(=O)c2cn(Cc3cccc(C)c3)c3nc(C)ccc3c2=O)cc1,"inconclusive: 15.8 µM [inhibitor, partial curve]",
COC(=O)c1c(CSc2cccc(C)c2)noc1C(=O)NCc1ccco1,"inconclusive: 28.2 µM [inhibitor, partial curve]",
CN(C)c1ccc(-c2nccc(NCc3ccccc3)n2)cc1,"inconclusive: 39.8 µM [inhibitor, single point]",
CCN(Cc1ccccc1)c1ccc(/C=N/N2CCOCC2)cc1,,inactive: -4.39%
COc1cc(C(=O)O[C@H]2C/C(C)=C/CC[C@]3(C)O[C@@H]3C(O)C2C(C)C)cc(OC)c1OC (some centres undefined),"inconclusive: 31.6 µM [inhibitor, single point]",
C=CCN(CC=C)S(=O)(=O)c1ccc(F)cc1,"inconclusive: 25.1 µM [inhibitor, partial curve]",
CC1(C)Cc2c(c(N3CCOCC3)nc3snc(N)c23)CO1,,inactive: -5.72%
O=C(CN1C(=O)C2C3C=CC(C3)C2C1=O)OCC(=O)c1ccc(Cl)cc1 (centres undefined),"inconclusive: 31.6 µM [inhibitor, single point]",
CCn1c(=O)c2cc(C(=O)NCCCOC)sc2c2ccccc21,"inconclusive: 35.5 µM [inhibitor, single point]",
Cc1ccc(S(=O)(=O)N2CCC(C(=O)NCCCn3ccnc3)CC2)cc1,,inactive: -3.63%
O=[N+]([O-])c1ccc(N/N=C/c2ccc[nH]2)cc1,"inconclusive: 35.5 µM [inhibitor, single point]",
CSc1ccc(/C=C(\C#N)C(=O)NC2CCCCC2C)cc1 (centres undefined),"inconclusive: 14.1 µM [inhibitor, partial curve]",
CC(C)C(NC(=O)OCc1ccccc1)C(=O)OCC(=O)N1C(C)CCCC1C (centres undefined),"inconclusive: 44.7 µM [inhibitor, single point]",
CC(=O)NCc1ccc(-c2csc(-c3cccs3)n2)cc1,"inconclusive: 28.2 µM [inhibitor, single point]",
CC(C)n1c(-c2ccc(N(C)C)cc2)nc2ccccc21,"inconclusive: 28.2 µM [inhibitor, partial curve]",
COc1ccc(CNC(=O)CCC2N=C3c4ccccc4N=C(SCc4cccc(F)c4)N3C2=O)cc1 (centres undefined),"inconclusive: 1.41 µM [inhibitor, full curve, poor fit]",
O=C1CC(C2CCCO2)C(=O)N1Cc1ccccc1 (centres undefined),"inconclusive: 14.1 µM [inhibitor, partial curve]",
Cc1snc(SCC(=O)N/N=C(\N)COc2cccc(C(F)(F)F)c2)c1C#N,"inconclusive: 5.01 µM [inhibitor, full curve]",
CCCNC(=O)COc1ncnc2sccc12,,inactive: -8.43%
